# Test results reported in the supplement of paper PMC3334620.
# The full ranking holds about 33,000 sequences; the median of “E-score (-0.5 to 0.5)” is about -0.012, and the highest 2% start at about 0.29. This is one part of the list.
# Target: T1, Ybr033w (UniProt P38073)
# T1 sequence: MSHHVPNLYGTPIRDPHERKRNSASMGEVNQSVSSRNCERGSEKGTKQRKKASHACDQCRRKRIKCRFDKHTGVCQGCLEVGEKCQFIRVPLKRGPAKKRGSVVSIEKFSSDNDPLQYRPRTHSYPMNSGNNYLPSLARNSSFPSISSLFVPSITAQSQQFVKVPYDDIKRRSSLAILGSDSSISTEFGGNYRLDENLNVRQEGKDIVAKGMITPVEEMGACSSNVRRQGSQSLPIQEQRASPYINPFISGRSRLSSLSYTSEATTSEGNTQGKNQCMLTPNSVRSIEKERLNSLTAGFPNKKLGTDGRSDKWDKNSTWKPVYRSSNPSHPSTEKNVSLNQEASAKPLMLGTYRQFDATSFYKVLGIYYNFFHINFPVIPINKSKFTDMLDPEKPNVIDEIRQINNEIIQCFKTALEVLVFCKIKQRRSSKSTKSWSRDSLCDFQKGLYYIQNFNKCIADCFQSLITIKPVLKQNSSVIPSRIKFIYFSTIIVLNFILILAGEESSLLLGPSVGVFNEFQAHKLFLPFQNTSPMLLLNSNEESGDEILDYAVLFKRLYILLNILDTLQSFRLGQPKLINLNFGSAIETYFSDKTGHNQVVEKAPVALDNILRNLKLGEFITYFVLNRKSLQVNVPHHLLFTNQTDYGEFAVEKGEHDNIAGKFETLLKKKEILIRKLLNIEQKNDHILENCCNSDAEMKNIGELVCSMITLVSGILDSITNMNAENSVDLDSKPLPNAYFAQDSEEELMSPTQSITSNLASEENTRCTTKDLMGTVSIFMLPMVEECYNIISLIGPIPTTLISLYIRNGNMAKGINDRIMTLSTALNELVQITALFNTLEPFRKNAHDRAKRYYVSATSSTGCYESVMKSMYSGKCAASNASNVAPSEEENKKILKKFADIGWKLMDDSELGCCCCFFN
# Assay: PBM E-score (8-mer binding enrichment) (E-score (-0.5 to 0.5)); higher = stronger / more preferred TF binding; most listed sequences are background and not binding sites
# Settings: protein concentration: 200 nM; construct: GST-full length
# Outline: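 Universal all-10-mer Agilent arrays, double-stranded by primer extension on fresh or once-stripped slides, were probed with about 100-200 nM GST-tagged yeast transcription factors made by PURExpress. Fluorescent anti-GST detected bound protein, and masliner normalised the scans. E-scores from the Universal PBM Analysis Suite were given to each ungapped eight-base word pooled with its reverse complement.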
row,Sequence,PBM E-score
1,AATCGGAT,0.103
2,AGTCTTCG,-0.0758
3,GGGAACGA,-0.0809
4,CCCTGTCA,-0.253
5,AATGCAAT,0.0527
6,CGAACCAG,-0.0159
7,GGTTGTTA,0.0806
8,TCTACCAA,0.156
9,ACCCTGGA,-0.243
10,AGGGCAGA,-0.196
11,ATCGAGCG,-0.089
12,CATTGCGC,-0.0267
13,AATTCCCT,-0.00587
14,GGCACCAC,-0.264
15,TAAGTATA,0.273
16,GCGAGTAA,0.115
17,ATCACCGA,0.0578
18,TCCCCAGA,-0.202
19,ATAGACCA,0.0473
20,CACTAGTC,-0.0769
21,TCAGAACA,0.0743
22,AAGGAAGG,-0.0051
23,GCTGTCAA,-0.0307
24,GTGCACTA,-0.0587
25,CGGTAAGA,-0.0702

row,Sequence,PBM E-score
1,AAGTGAGT,-0.0751
2,ACCAGTGC,-0.266
3,CCCACGGG,-0.331
4,AACTGTGC,0.00985
5,CAAGCTCC,-0.251
6,ACGCCCAA,-0.0629
7,CGGCTGGA,-0.0587
8,AGTAATAC,0.222
9,GGCGCAAC,-0.0758
10,AGTGAATA,0.123
11,ACCTCTAG,-0.16
12,AAAGTAAC,0.23
13,CGACAGTA,-0.149
14,AGGCGCCC,-0.246
15,ATATTGCC,0.0911
16,AACACACC,0.197
17,AGTACATC,0.109
18,ACAAAGTA,0.3
19,GTATACCA,-0.139
20,AAACACTA,0.193
21,AAAAGGGA,-0.138
22,CGGCTAAA,0.0957
23,GACGCGTC,-0.185
24,CCTAACGA,-0.0133
25,AACATGCG,0.0191

row,Sequence,PBM E-score
1,CTCCCCGC,-0.105
2,AGGAAGTA,0.165
3,AAAAAGAT,0.219
4,AGGATGCG,-0.0573
5,GTTCCGTA,0.0963
6,ACTAGAAG,0.0113
7,ATGGCACC,-0.286
8,CGCGTTGC,-0.0205
9,CTTGACCA,-0.0112
10,AGTTTTAC,0.171
11,CGGGTGCC,-0.151
12,GGGGGTCA,-0.399
13,AGAATTCG,0.103
14,TGTTTGAA,0.208
15,ACGTGGTG,-0.185
16,CAAGTTCC,0.00505
17,AGATAGAG,0.114
18,GAACCAGA,-0.162
19,GGCCCCGA,-0.256
20,ACTGTAAC,0.0471
21,CAGTTGAA,0.00266
22,ACGCATCA,0.106
23,CGGTCAAG,-0.13
24,AAGTAGCG,-0.142
25,GCGTACCC,-0.144

row,Sequence,PBM E-score
1,ACCTTTAT,0.0832
2,AGGAGACA,-0.0884
3,CTGGGTTC,-0.0107
4,GTAAGAGA,-0.1
5,CAATTCGC,-0.0297
6,GGCGGAGA,-0.149
7,GCATCGGC,-0.179
8,GTAGGTTA,0.0742
9,GTCTAAGA,0.00167
10,CTCTATTC,0.0334
11,GTTTTACA,0.097
12,GTAATGAC,0.124
13,ATCCACGC,-0.0875
14,CACTGCGA,-0.0164
15,ACGTGCTA,-0.0824
16,CTTCTCAA,0.0494
17,CGTAGAGA,-0.0357
18,CTCGCCGC,-0.113
19,AACCCGAG,-0.0949
20,GGTCCCTA,-0.266
21,CGATATAC,0.0716
22,CTGTCGTA,0.0281
23,GCCCTCAA,-0.0838
24,ACCGGAGA,0.112
25,CCGAAGAC,0.00094

row,Sequence,PBM E-score
1,CGCGTTGA,-0.173
2,ATCCAGGC,-0.15
3,CTCTAGCC,-0.174
4,GGAAGCCC,-0.0887
5,ATGATCAG,0.0939
6,CAGTAGTA,0.0054
7,TCGCATCA,0.0873
8,GAGTATCA,0.0233
9,ATGTGAAA,0.168
10,ACCACCAA,0.0783
11,ACAATTCT,0.234
12,GCTGTAGA,0.0906
13,AAGTGCTC,-0.137
14,CTCAGTGA,-0.056
15,AACGCAGT,-0.216
16,ATAGCCGA,-0.0166
17,TCGTCCCA,0.0631
18,CTAACAGC,0.0372
19,AATATATA,0.277
20,CAGCCCTA,-0.142
21,ATTTGTAA,0.266
22,CATAGACC,-0.0475
23,ATGCTGTA,0.0893
24,GAGTATCC,-0.0164
25,GGGTTCAC,-0.03

row,Sequence,PBM E-score
1,GGGATCTA,-0.0846
2,ATGGTTGG,-0.00724
3,AGTAATGG,0.127
4,ATTTCGTG,0.207
5,AGGACCCG,-0.151
6,GAACCTTA,0.235
7,CGCCAACA,0.0341
8,CTTCTACA,0.0183
9,GCAGGGAA,0.0667
10,CTTGTAAA,0.14
11,AGCTTCCT,0.0496
12,AATCGGAA,0.238
13,AAAACCGT,0.0113
14,GGGGAGGA,-0.205
15,AAATAGAC,0.101
16,AGAGGTTG,-0.103
17,GTACCATA,0.00958
18,CGTACGTC,-0.339
19,AGTTCGCG,-0.0796
20,ATAAAGCG,0.11
21,GATGAGAA,0.0192
22,CCGTCCGC,-0.366
23,CAGGGTGC,-0.316
24,AAGCAACA,0.117
25,AACAGAGG,-0.113

row,Sequence,PBM E-score
1,ACTCACAC,-0.1
2,GTCCAAAC,-0.142
3,GATGGTCC,-0.299
4,ACGCAATA,0.177
5,GACGTCCA,-0.0351
6,TATGTTGA,0.191
7,CCAGGACA,-0.0752
8,ACACTTAC,0.14
9,AGTCAAGG,-0.0815
10,GCTCGAAC,0.0518
11,GCGAGGAA,0.125
12,GGCTCCAC,-0.267
13,CTAGAACC,-0.072
14,ATCCGCAT,0.188
15,CGATCTCA,0.00902
16,AAACTTGT,0.232
17,GGGCCGAA,-0.212
18,CGGTTAGA,-0.12
19,CCCCGAGG,-0.201
20,ACGTTCTG,0.0106
21,ACATTGCA,0.108
22,AACGCCCG,-0.124
